# Data as given in the supplement of paper PMC8728848.
# The other results are listed elsewhere or left out.
# What was measured:
# Test in all cases: glycan array binding signal (z-score within array); higher = stronger binding
# Settings in all cases: glycan notation: IUPAC condensed, linker removed
# Glc(a1-6)Glc(a1-6)Glc = biological target: Glc(a1-6)Glc(a1-6)Glc
# Summary of the method: (§1)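 Glycan array data came from 3228 arrays in the Consortium for Functional Glycomics database, and only arrays with an available protein sequence were kept. Glycan names were put into IUPAC-condensed notation, and columns mapping to the same glycan were averaged. The binding signal is a within-array Z-score, averaged across arrays of one protein sequence run at different concentrations or buffers and across linkers. A negative Z-score can be read as non-binding.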
# [1] = biological target: Glc(a1-6)Glc(a1-6)Glc(a1-6)Glc
# Summary of the method: as §1
# Glc(b1-4)Glc = biological target: Glc(b1-4)Glc
# Summary of the method: as §1
# Glc(b1-6)Glc = biological target: Glc(b1-6)Glc
# Summary of the method: as §1
# GlcA(b1-3)Gal = biological target: GlcA(b1-3)Gal
# Summary of the method: as §1
# GlcA(b1-3)GlcNAc = biological target: GlcA(b1-3)GlcNAc
# Summary of the method: as §1
# GlcA(b1-6)Gal = biological target: GlcA(b1-6)Gal
# Summary of the method: as §1
# [2] = biological target: GlcA3S(b1-3)Gal(b1-4)GlcNAc(b1-2)Man
# Summary of the method: as §1
# [3] = biological target: GlcA3S(b1-3)Gal(b1-4)GlcNAc(b1-3)Gal(b1-4)Glc
# Summary of the method: as §1
# [4] = biological target: GlcNAc(a1-3)Gal(b1-4)GlcNAc
# Summary of the method: as §1
# [5] = biological target: GlcNAc(a1-4)Gal(b1-3)GlcNAc
# Summary of the method: as §1
# [6] = biological target: GlcNAc(a1-4)Gal(b1-4)GalNAc
# Summary of the method: as §1
# [7] = biological target: GlcNAc(a1-4)Gal(b1-4)GlcNAc
# Summary of the method: as §1
# [8] = biological target: GlcNAc(a1-4)Gal(b1-4)GlcNAc(b1-3)Gal(b1-4)Glc
# Summary of the method: as §1
# [9] = biological target: GlcNAc(a1-4)Gal(b1-4)GlcNAc(b1-3)Gal(b1-4)GlcNAc
# Summary of the method: as §1
# [10] = biological target: GlcNAc(a1-4)Gal(b1-4)GlcNAc(b1-3)Gal(b1-4)GlcNAc(b1-3)Gal(b1-4)GlcNAc
# Summary of the method: as §1
# [11] = biological target: GlcNAc(a1-4)Gal(b1-4)GlcNAc(b1-3)Gal(b1-4)[Fuc(a1-3)]GlcNAc(b1-3)Gal(b1-4)[Fuc(a1-3)]GlcNAc
# Summary of the method: as §1
# [12] = biological target: GlcNAc(a1-6)Gal(b1-4)GlcNAc
# Summary of the method: as §1
# [13] = biological target: GlcNAc(b1-2)Gal(b1-3)GalNAc
# Summary of the method: as §1
# [14] = biological target: GlcNAc(b1-2)Man(a1-3)[GlcNAc(b1-2)Man(a1-6)]Man(b1-4)GlcNAc(b1-4)GlcNAc
# Summary of the method: as §1
# [15] = biological target: GlcNAc(b1-2)Man(a1-3)[GlcNAc(b1-2)Man(a1-6)]Man(b1-4)GlcNAc(b1-4)[Fuc(a1-6)]GlcNAc
# Summary of the method: as §1
# [16] = biological target: GlcNAc(b1-2)Man(a1-3)[GlcNAc(b1-4)][GlcNAc(b1-2)Man(a1-6)]Man(b1-4)GlcNAc(b1-4)GlcNAc
# Summary of the method: as §1
# [17] = biological target: GlcNAc(b1-2)Man(a1-3)[GlcNAc(b1-4)][GlcNAc(b1-2)Man(a1-6)]Man(b1-4)GlcNAc(b1-4)[Fuc(a1-6)]GlcNAc
# Summary of the method: as §1
# [18] = biological target: GlcNAc(b1-2)[GlcNAc(b1-4)]Man(a1-3)[GlcNAc(b1-2)Man(a1-6)]Man(b1-4)GlcNAc(b1-4)GlcNAc
# Summary of the method: as §1
# [19] = biological target: GlcNAc(b1-2)[GlcNAc(b1-4)]Man(a1-3)[GlcNAc(b1-4)][GlcNAc(b1-2)Man(a1-6)]Man(b1-4)GlcNAc(b1-4)GlcNAc
# Summary of the method: as §1
# [20] = biological target: GlcNAc(b1-2)[GlcNAc(b1-4)]Man(a1-3)[GlcNAc(b1-4)][GlcNAc(b1-2)[GlcNAc(b1-6)]Man(a1-6)]Man(b1-4)GlcNAc(b1-4)GlcNAc
# Summary of the method: as §1
# [21] = biological target: GlcNAc(b1-2)[GlcNAc(b1-4)]Man(a1-3)[GlcNAc(b1-4)][GlcNAc(b1-2)[GlcNAc(b1-6)]Man(a1-6)]Man(b1-4)GlcNAc(b1-4)[Fuc(a1-6)]GlcNAc
# Summary of the method: as §1
# [22] = biological target: GlcNAc(b1-2)[GlcNAc(b1-6)]Man(a1-6)[GlcNAc(b1-2)Man(a1-3)]Man(b1-4)GlcNAc(b1-4)GlcNAc
# Summary of the method: as §1
# [23] = biological target: GlcNAc(b1-2)[GlcNAc(b1-6)]Man(a1-6)[GlcNAc(b1-2)Man(a1-3)]Man(b1-4)GlcNAc(b1-4)[Fuc(a1-6)]GlcNAc
# Summary of the method: as §1
# [24] = biological target: GlcNAc(b1-2)[GlcNAc(b1-6)]Man(a1-6)[GlcNAc(b1-2)Man(a1-3)][GlcNAc(b1-4)]Man(b1-4)GlcNAc(b1-4)GlcNAc
# Summary of the method: as §1
# [25] = biological target: GlcNAc(b1-2)[GlcNAc(b1-6)]Man(a1-6)[GlcNAc(b1-4)][GlcNAc(b1-2)Man(a1-3)]Man(b1-4)GlcNAc(b1-4)GlcNAc
# Summary of the method: as §1
# GlcNAc(b1-3)Fuc = biological target: GlcNAc(b1-3)Fuc
# Summary of the method: as §1
# GlcNAc(b1-3)Gal = biological target: GlcNAc(b1-3)Gal
# Summary of the method: as §1
# [26] = biological target: GlcNAc(b1-3)Gal(b1-3)GalNAc
# Summary of the method: as §1
# GlcNAc(b1-3)Gal(b1-4)Glc = biological target: GlcNAc(b1-3)Gal(b1-4)Glc
# Summary of the method: as §1
# [27] = biological target: GlcNAc(b1-3)Gal(b1-4)GlcNAc
# Summary of the method: as §1
# [28] = biological target: GlcNAc(b1-3)Gal(b1-4)GlcNAc(b1-2)Man(a1-3)[GlcNAc(b1-3)Gal(b1-4)GlcNAc(b1-2)Man(a1-6)]Man(b1-4)GlcNAc(b1-4)GlcNAc
# Summary of the method: as §1
binder,measurement,setting,value
PpFlo1 (Pichia pastoris) (protein) MGSSHHHHHHSSGLVPRGSHMQESGDGDISDSAYACDIDATRYDGFNATIYEFQPGDGRLTRDPVFMSTGYLNRTQLHSITGVTDPGFSIYTPGVPTTTLYGIPNVNWENLLLELKGYFRAEVSGDYGLSLRNIDDSAILFFGKETAFQCCNENSISNEASTDYSLFTIFRQEGDETTNLDSFTYTQYLEAGKYYPVRTFFVNIERHAVFNFTMTLPDGTELTDFHNYIYQFGALDEEQCQA,glycan array binding signal (z-score),Glc(a1-6)Glc(a1-6)Glc,-0.015
same,glycan array binding signal (z-score),[1],-0.59
same,glycan array binding signal (z-score),Glc(b1-4)Glc,-0.209
same,glycan array binding signal (z-score),Glc(b1-6)Glc,-0.575
same,glycan array binding signal (z-score),GlcA(b1-3)Gal,-0.198
same,glycan array binding signal (z-score),GlcA(b1-3)GlcNAc,-0.554
same,glycan array binding signal (z-score),GlcA(b1-6)Gal,0.088
same,glycan array binding signal (z-score),[2],-0.476
same,glycan array binding signal (z-score),[3],-0.4
same,glycan array binding signal (z-score),[4],-0.426
same,glycan array binding signal (z-score),[5],0.471
same,glycan array binding signal (z-score),[6],0.13
same,glycan array binding signal (z-score),[7],0.008
same,glycan array binding signal (z-score),[8],-0.56
same,glycan array binding signal (z-score),[9],1.1
same,glycan array binding signal (z-score),[10],0.046
same,glycan array binding signal (z-score),[11],0.847
same,glycan array binding signal (z-score),[12],0.325
same,glycan array binding signal (z-score),[13],-0.098
same,glycan array binding signal (z-score),[14],0.686
same,glycan array binding signal (z-score),[15],0.12
same,glycan array binding signal (z-score),[16],-0.685
same,glycan array binding signal (z-score),[17],-0.503
same,glycan array binding signal (z-score),[18],-0.171
same,glycan array binding signal (z-score),[19],1.17
same,glycan array binding signal (z-score),[20],-0.337
same,glycan array binding signal (z-score),[21],-0.195
same,glycan array binding signal (z-score),[22],-0.18
same,glycan array binding signal (z-score),[23],0.03
same,glycan array binding signal (z-score),[24],-0.522
same,glycan array binding signal (z-score),[25],0.009
same,glycan array binding signal (z-score),GlcNAc(b1-3)Fuc,-0.291
same,glycan array binding signal (z-score),GlcNAc(b1-3)Gal,0.242
same,glycan array binding signal (z-score),[26],0.218
same,glycan array binding signal (z-score),GlcNAc(b1-3)Gal(b1-4)Glc,-0.244
same,glycan array binding signal (z-score),[27],0.154
same,glycan array binding signal (z-score),[28],0.121
